Data from PubChem BioAssay AID1963576 (National Center for Advancing Translational Sciences (NCATS), 2024).
About 60 (0.1%) of roughly 46,000 compounds were called active. About 3% were inconclusive and are not listed. The call rests on the fitted dose curve; in most records, active means well fitted inhibition curve with a large enough effect; inconclusive means small, poorly fitted or top-dose-only effect; inactive means no such curve, though single readings can be large or run the other way. Some of the results follow.

Test: Primary qHTS assay for Inhibitors of ovarian cancer metastasis using an organotypic tumor microenvironment (TME) model. Further: nearly all actives have a fitted effect of over 65% in size.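 On activity change, negative = inhibition: plate controls were DMSO wells for no effect and tomatine positive control wells for full effect.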
Details: SKOV3ip1-GFP adhesion/invasion on 3D omental model, fluorescence; series mostly up to 45.8 µM; activity change, negative = inhibition: at the top concentration
In short: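 Adhesion/invasion was scored as fixed GFP-labeled SKOV3ip1 cell counts (488/509 nm), normalized to DMSO and tomatine controls. Cancer cells in serum-free medium, with four compound doses (0.36-46 umol/L), sat 2 hr at RT then 16 hr at 37 C on a 48 hr fibroblast/mesothelial/ECM culture.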

outcome, inactive:
COc1ccc(C(=O)NCc2ccc3c(c2)CCN3C(=O)c2ccncc2)cc1
Cc1ccc(Cl)cc1N(C)C(=O)c1cc2c(Cl)nc3ccccc3c2s1
N#C/C(=C/c1ccccc1Cl)c1nc2ccccc2c(=O)[nH]1
CC(=O)Nc1ccc(Nc2nc3c(S(=O)(=O)c4cc(C)ccc4C)nnn3c3ccsc23)cc1
Cc1cc2nn(-c3ccc(F)cc3)nc2cc1NC(=O)c1cccc([N+](=O)[O-])c1C
Cc1ccc(CSCCNC(=O)C2CCN(S(=O)(=O)Cc3ccccc3)CC2)cc1
Cc1ccc(CNC(=O)C2CCC(CNS(=O)(=O)c3ccc(C)cc3)CC2)cc1 (configuration not stated)

Activity change, negative = inhibition, inactive:
COc1ccc(OC)c(NC(=O)c2c(NCc3ccc(C)o3)sc3c2CCC(C)C3)c1 (configuration not stated) -24.1%
Cc1cccc(N(CC(=O)Nc2ccc(Br)cc2)S(C)(=O)=O)c1C 0.168%
O=C(C1CCC(Cn2c(=O)c3sccc3n(Cc3cccc(F)c3)c2=O)CC1)N1CCOCC1 (configuration not stated) 1.62%
Cc1ccc(Cn2c(CO)cnc2SCC(=O)NCc2ccccc2Cl)cc1 -6.57%
COc1ccc(N2CCN(C3(c4ccccc4)C(=O)c4ccccc4C3=O)CC2)cc1 -5.09%
CCCCCCNC(=O)c1c[nH]c2ccc(S(=O)(=O)N(C)c3ccc(C(C)C)cc3)cc2c1=O -1.81%
Cc1cccc(C(=O)Nc2cc3nn(-c4ccc(C(C)C)cc4)nc3cc2C)c1 -8.01%
Clc1cccc(-c2nc3ccccn3c2Nc2ccc3c(c2)OCCO3)c1 -6.1%
COC(=O)c1ccc(Nc2nc(-c3ccccc3Cl)nc3ccccc23)cc1 3.76%
COc1ccc(N2C(=O)CSC23C(=O)N(CC(=O)Nc2ccccc2F)c2ccccc23)cc1 (configuration not stated) -1.55%
COc1cccc(OC(=O)CSc2nnc(-c3cccs3)o2)c1 5.09%
COc1cccc(CNC(=O)Cn2nc(-c3ccc(C)cc3)ccc2=O)c1 -12.6%
Cc1ccc(N(C)C(CNS(=O)(=O)c2ccccc2)c2ccccc2)cc1 (configuration not stated) -7.55%
COc1ccccc1NC(=O)CSc1ccc(-c2ccccn2)nn1 -7.22%
Cc1cc(OC(C)C(=O)N2CCC(c3nc4ccccc4o3)CC2)ccc1Cl (configuration not stated) -4.53%
Cc1ccc(NC(=O)Cn2cc(C(=O)c3ccco3)c3ccccc32)cc1C 0.919%
CCCCN(C)S(=O)(=O)c1ccc(NC2=NS(=O)(=O)c3ccccc32)cc1 4.81%
COc1ccc(-n2ccnc2SCC(=O)Nc2cccc(OC)c2)cc1 -6.74%
CCCNC(=O)C1CCN(C(=O)N2CC(C)Oc3ccccc32)CC1 (configuration not stated) 3.46%
CCn1ccc2cc(S(=O)(=O)N3CCCN(C(=O)Nc4cccc(SC)c4)CC3)ccc21 2.47%
